Data published in publication PMC6750928.
These are yes or no findings as the source states them, for the method shown. In cells and extracts the contact can be indirect. Some entries that bind do so weakly or less than the wild type.

By UniProt entry, the sequences of proteins in these tests, tags left out. Residues count along the entry.
UniProt P46093: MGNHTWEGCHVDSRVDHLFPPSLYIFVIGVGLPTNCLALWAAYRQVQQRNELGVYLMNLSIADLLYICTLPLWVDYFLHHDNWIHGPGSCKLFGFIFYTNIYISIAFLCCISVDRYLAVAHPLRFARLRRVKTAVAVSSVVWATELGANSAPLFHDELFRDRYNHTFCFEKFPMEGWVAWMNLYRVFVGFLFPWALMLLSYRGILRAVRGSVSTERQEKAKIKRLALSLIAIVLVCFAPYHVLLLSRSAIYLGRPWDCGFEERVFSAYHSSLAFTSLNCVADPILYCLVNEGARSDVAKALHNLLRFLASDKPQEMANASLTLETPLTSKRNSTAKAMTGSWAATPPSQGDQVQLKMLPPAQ
UniProt Q03431, residues 29-593: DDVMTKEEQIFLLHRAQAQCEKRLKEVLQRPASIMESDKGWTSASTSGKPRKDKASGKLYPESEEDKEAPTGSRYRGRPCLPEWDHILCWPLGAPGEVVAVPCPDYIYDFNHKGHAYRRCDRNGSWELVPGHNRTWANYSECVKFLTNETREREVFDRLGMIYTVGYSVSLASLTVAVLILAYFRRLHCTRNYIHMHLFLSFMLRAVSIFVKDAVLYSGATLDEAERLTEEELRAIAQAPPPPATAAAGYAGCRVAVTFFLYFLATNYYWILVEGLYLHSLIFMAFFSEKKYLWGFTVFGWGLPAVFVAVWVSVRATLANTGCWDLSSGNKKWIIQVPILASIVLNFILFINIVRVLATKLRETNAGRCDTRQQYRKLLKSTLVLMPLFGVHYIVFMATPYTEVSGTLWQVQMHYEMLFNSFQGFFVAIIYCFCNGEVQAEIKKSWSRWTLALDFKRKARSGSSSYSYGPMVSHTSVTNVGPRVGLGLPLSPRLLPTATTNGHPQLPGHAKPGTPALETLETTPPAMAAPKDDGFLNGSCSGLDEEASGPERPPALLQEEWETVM
UniProt P34998, residues 24-415: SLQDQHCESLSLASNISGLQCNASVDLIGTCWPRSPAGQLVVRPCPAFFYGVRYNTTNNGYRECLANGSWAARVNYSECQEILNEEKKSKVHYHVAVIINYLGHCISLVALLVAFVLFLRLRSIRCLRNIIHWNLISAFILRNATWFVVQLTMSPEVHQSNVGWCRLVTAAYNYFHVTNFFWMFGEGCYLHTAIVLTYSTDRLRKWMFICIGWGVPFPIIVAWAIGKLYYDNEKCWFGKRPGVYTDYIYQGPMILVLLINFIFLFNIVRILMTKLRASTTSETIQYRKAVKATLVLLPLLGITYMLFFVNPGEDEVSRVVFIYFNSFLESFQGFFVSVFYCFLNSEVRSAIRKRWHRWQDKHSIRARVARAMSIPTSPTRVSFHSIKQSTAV
UniProt P47871, residues 27-477: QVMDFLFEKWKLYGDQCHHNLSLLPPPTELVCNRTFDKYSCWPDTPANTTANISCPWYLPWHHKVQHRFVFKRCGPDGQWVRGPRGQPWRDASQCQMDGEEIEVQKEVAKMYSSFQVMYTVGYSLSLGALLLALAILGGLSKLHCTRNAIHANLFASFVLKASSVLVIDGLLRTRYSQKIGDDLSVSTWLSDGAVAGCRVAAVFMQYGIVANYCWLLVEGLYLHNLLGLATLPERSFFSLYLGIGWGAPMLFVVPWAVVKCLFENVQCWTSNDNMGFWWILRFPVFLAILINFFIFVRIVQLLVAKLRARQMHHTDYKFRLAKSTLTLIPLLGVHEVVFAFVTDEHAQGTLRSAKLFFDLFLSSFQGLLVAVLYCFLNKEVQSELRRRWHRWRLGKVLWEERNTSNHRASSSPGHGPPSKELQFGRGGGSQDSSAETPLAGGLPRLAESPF
UniProt P49682: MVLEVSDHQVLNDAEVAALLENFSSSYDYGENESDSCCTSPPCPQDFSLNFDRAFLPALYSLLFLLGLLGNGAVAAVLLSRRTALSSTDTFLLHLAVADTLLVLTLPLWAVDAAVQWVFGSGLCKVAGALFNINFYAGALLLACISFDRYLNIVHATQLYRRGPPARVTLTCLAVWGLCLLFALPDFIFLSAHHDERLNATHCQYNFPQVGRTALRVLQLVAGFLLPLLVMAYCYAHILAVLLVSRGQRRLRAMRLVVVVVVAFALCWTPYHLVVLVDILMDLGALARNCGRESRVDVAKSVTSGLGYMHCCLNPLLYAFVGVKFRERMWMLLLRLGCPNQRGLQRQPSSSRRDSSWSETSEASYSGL
UniProt Q16602, residues 23-461: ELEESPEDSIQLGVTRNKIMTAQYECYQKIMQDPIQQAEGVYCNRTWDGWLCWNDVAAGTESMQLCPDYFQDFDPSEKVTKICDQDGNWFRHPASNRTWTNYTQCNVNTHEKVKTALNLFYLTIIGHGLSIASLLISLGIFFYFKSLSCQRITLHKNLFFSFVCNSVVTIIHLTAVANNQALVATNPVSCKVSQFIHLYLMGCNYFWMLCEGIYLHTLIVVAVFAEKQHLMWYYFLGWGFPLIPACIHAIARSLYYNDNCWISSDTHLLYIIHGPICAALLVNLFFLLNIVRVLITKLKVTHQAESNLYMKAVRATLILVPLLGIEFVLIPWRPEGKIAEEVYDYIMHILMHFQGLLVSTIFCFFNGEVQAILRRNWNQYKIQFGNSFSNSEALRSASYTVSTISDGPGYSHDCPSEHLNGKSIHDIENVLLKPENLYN
UniProt P43220, residues 24-463: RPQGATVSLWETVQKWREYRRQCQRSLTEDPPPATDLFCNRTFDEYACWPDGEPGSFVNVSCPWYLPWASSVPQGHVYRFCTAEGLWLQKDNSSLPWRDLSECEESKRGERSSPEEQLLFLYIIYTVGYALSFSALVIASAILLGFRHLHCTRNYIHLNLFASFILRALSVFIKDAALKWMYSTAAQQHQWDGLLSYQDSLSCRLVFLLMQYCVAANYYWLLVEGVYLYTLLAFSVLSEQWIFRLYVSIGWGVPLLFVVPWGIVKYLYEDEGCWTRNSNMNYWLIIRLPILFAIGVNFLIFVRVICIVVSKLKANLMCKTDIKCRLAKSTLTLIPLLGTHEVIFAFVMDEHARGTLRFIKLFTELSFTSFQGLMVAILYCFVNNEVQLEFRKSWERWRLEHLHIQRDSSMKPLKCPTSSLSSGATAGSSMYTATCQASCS
UniProt P49190, residues 25-550: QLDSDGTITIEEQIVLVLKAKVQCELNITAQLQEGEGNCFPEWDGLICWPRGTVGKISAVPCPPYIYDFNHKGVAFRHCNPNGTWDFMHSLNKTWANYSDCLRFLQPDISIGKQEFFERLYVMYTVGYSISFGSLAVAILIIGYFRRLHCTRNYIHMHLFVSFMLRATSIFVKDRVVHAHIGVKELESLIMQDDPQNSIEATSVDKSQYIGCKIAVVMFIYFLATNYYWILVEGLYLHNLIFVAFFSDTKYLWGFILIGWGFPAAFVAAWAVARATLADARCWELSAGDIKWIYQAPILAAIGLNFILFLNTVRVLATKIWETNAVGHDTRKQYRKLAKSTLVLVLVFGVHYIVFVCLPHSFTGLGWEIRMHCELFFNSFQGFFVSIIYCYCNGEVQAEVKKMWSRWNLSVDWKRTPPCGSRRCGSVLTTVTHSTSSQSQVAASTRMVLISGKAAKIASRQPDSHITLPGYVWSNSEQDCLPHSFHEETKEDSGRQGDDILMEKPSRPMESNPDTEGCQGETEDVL
UniProt P47872, residues 28-440: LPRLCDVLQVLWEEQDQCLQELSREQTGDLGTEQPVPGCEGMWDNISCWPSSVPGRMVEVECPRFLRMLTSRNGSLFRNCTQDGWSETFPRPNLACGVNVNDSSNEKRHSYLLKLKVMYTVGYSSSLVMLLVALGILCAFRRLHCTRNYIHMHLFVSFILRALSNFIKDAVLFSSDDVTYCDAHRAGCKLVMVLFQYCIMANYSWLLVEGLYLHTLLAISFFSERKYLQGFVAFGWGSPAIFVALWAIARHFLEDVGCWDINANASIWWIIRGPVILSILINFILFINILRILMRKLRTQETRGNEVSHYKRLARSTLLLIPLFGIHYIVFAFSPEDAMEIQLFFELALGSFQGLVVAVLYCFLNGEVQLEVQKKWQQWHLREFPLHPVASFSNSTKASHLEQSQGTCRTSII
UniProt P51681: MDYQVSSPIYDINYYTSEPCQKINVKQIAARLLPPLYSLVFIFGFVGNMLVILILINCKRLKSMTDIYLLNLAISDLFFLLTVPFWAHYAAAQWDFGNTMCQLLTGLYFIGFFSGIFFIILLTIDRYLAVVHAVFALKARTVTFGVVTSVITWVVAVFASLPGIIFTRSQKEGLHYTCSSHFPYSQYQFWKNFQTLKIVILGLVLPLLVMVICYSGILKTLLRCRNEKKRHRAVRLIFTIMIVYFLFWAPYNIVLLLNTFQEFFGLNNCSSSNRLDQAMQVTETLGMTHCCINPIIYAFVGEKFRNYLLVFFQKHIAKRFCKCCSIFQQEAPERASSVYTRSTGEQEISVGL
UniProt P32248, residues 25-378: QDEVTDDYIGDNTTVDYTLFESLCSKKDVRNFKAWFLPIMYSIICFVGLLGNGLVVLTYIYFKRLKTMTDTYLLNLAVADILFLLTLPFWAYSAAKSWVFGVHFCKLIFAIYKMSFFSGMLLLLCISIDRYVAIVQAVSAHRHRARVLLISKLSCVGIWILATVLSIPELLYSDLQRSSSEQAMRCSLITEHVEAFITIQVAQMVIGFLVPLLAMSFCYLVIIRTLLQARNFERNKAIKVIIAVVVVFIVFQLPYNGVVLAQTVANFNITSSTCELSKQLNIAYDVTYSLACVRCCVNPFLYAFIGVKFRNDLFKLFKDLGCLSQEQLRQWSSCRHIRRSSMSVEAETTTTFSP
UniProt O60895, residues 43-175: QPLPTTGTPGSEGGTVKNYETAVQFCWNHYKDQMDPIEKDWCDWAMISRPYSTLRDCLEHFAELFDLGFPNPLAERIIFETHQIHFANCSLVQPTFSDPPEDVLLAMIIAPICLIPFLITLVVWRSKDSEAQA

What was measured:
[1] = target: G protein-coupled receptor 4 (human) (UniProt P46093); assay: proximity ligation; HEK293T cells cotransfected with HA-tagged GPCR and FLAG-tagged RAMP2, fixed with methanol (or formaldehyde), rabbit anti-HA and mouse anti-FLAG primary Abs, DuoLink In Situ Red; PLA puncta per cell
[2] = target: Parathyroid hormone receptor 1 (human) (UniProt Q03431); assay: as above
[3] = target: Corticotropin-releasing hormone receptor 1 (human) (UniProt P34998); assay: co-IP; multiplexed suspension bead array (SBA) immunoassay: clarified lysates (1% DM; 50 mM Hepes, 1 mM EDTA, 150 mM NaCl, 5 mM MgCl2, pH 7.4) of HEK293F cells cotransfected with tagged GPCR and RAMP, diluted to 50 ug/ml, incubated overnight at 4°C with bar-coded beads carrying anti-tag (HA, 1D4, FLAG, OLLAS), anti-GPCR or anti-RAMP Abs; the partner detected with a PE-conjugated anti-tag mAb; Luminex FlexMap 3D, MFI
[4] = target: Glucagon receptor (human) (UniProt P47871); assay: as above
[5] = target: Parathyroid hormone receptor 1 (human) (UniProt Q03431); assay: as above
[6] = target: C-X-C chemokine receptor type 3 (human) (UniProt P49682); assay: as above
[7] = target: Calcitonin receptor-like receptor (human) (UniProt Q16602); assay: as above
[8] = target: Glucagon-like receptor 1 (human) (UniProt P43220); assay: as above
[9] = target: Parathryoid hormone receptor 2 (human) (UniProt P49190); assay: as above
[10] = target: Secretin receptor (human) (UniProt P47872); assay: as above
[11] = substrate: C-C chemokine receptor type 5 (human) (UniProt P51681); assay: as above
[12] = substrate: C-C chemokine receptor type 7 (human) (UniProt P32248); assay: as above

Row | binding [1] | binding [2] | binding [3] | binding [4] | binding [5] | binding [6] | binding [7] | binding [8] | binding [9] | binding [10] | binding [11] | binding [12] | Molecule
1 | binds | binds | binds | binds | binds | – | – | – | – | – | – | – | Receptor activity-modifying protein 2 (from UniProt O60895 43-175)
2 | – | – | – | – | – | binds weakly | binds | binds | binds | binds | no binding | no binding | Receptor activity-modifying protein 3 (protein, UniProt O60896 28-148) CNETGMLERLPLCGKAFADMMGKVDVWKWCNLSEFIVYYESFTNCTEMEANVVGCYWPNPLAQGFITGIHRQFFSNCTVDRVHLEDPPDEVLIPLIVIPVVLTVAMAGLVVWRSKRTDTLL
